Assay results reported in the supplement of paper PMC9446081.
In all, about 39,000 compounds went through this assay and about 220 (0.56%) showed activity. Some of the results follow.

The compounds below were run on Escherichia coli K-12 BW25113 (assay: relative growth (OD600 normalised to plate interquartile mean) (fraction); higher = less growth inhibition, active = 0.2 or less). Settings: 50 µM; LB; incubation time: overnight (16-24 h).
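Further: static incubation at 37 °C against the wild-type strain, values averaged over two biological replicates.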

Row | Compound | relative growth
1 | C[C@@H]1CN([C@H](C)CO)S(=O)(=O)c2ccc(C#CCN(C)C)cc2O[C@H]1CN(C)C(=O)C1CCCCC1 | inactive: 0.966
2 | C[C@H](CO)N1C[C@H](C)[C@H](CN(C)Cc2ccc(Cl)c(Cl)c2)Oc2ccc(NC(=O)C3CCCCC3)cc2CC1=O | inactive: 1.03
3 | COC(=O)C[C@H]1CC[C@@H]2[C@H](COC[C@@H](O)CN2S(=O)(=O)c2ccc(F)cc2)O1 | inactive: 1.01
4 | Cc1ccc(S(=O)(=O)Nc2ccc3c(c2)C(=O)N([C@@H](C)CO)C[C@H](C)[C@@H](CN(C)S(=O)(=O)c2ccc(F)cc2)O3)cc1 | inactive: 1.01
5 | Cc1noc(C)c1S(=O)(=O)N(C)C[C@@H]1OCCCC[C@@H](C)Oc2ccc(NS(C)(=O)=O)cc2C(=O)N([C@@H](C)CO)C[C@H]1C | inactive: 0.992
6 | Cn1cnc(CCNC(=O)C[C@@H]2CC[C@@H]3[C@H](COC[C@H](O)CN3C(=O)Nc3ccc(Cl)cc3)O2)c1 | inactive: 0.996
7 | C[C@H](CO)N1C[C@H](C)[C@H](CN(C)C(=O)c2ccc3c(c2)OCO3)Oc2cc(-c3cccnc3)ccc2S1(=O)=O | inactive: 0.99
8 | CC(C)(O)C#Cc1ccc([C@H]2[C@@H](CO)N3CCCCN(S(C)(=O)=O)C[C@H]23)cc1 | inactive: 0.98
9 | CN1C(=O)c2cc(NC(=O)C3CCOCC3)ccc2OC[C@@H]2O[C@@H](CC(=O)NCc3ccccc3F)CC[C@H]21 | inactive: 1.02
10 | O[C@H]1CCCSc2ccccc21 | inactive: 0.999
11 | C[C@@H]1CN([C@H](C)CO)C(=O)Cc2cc(NC(=O)Cn3cnnn3)ccc2O[C@H]1CN(C)S(=O)(=O)c1cn(C)cn1 | inactive: 0.995
12 | CC(C)Nc1ncnc(N)c1[N+](=O)[O-] | inactive: 0.972
13 | C[C@H](CO)N1C[C@H](C)[C@H](CN(C)Cc2ccc(Oc3ccccc3)cc2)Oc2ccc(NC(=O)Nc3ccc(C(F)(F)F)cc3)cc2C1=O | inactive: 1.01
14 | C[C@H]1CN([C@@H](C)CO)C(=O)c2cccc(NS(=O)(=O)c3cn(C)cn3)c2O[C@H]1CN(C)S(C)(=O)=O | inactive: 0.989
15 | NNc1ccc2c(N)[nH]nc2c1 | inactive: 1.01
16 | Cc1noc(C)c1S(=O)(=O)N(C)C[C@H]1OCCCC[C@@H](C)Oc2ccc(NS(=O)(=O)c3cn(C)cn3)cc2C(=O)N([C@H](C)CO)C[C@@H]1C | inactive: 0.968
17 | CCCCCCCC(=O)OCC(COC(=O)CCCCCCC)OC(=O)CCCCCCC | inactive: 1.06
18 | CCOC(=O)c1cc2c(c(-c3cccc(-c4cccc(OC)c4)c3)n1)[C@@H](CCO)N(S(=O)C(C)(C)C)C2 (some centres undefined) | inactive: 1
19 | COc1ccc(S(=O)(=O)N(C)C[C@H]2Oc3ccc(NC(=O)Nc4c(C)noc4C)cc3C(=O)N([C@@H](C)CO)C[C@H]2C)cc1 | inactive: 1.01
20 | C[C@H](CO)N1C[C@H](C)[C@H](CN(C)Cc2ccncc2)Oc2c(NS(=O)(=O)c3cn(C)cn3)cccc2C1=O | inactive: 1.01

Row | Compound | relative growth
21 | CS(=O)(=O)Nc1ccc2c(c1)[C@H]1C[C@H](CC(=O)NCc3ccc(-c4ccccc4)cc3)O[C@@H](CO)[C@H]1O2 | inactive: 0.989
22 | Cc1ccc(S(=O)(=O)N(C)C[C@@H]2OCCCC[C@@H](C)Oc3ccc(NC(=O)NC4CCCCC4)cc3C(=O)N([C@@H](C)CO)C[C@@H]2C)cc1 | inactive: 1
23 | C[C@@H]1CN([C@H](C)CO)C(=O)c2cc(NC(=O)Nc3cccc4ccccc34)ccc2O[C@@H]1CN(C)Cc1ccc(Cl)c(Cl)c1 | inactive: 1.04
24 | Cc1noc(C)c1S(=O)(=O)Nc1ccc2c(c1)CC(=O)N([C@@H](C)CO)C[C@H](C)[C@H](CN(C)Cc1ccncc1)O2 | inactive: 0.983
25 | CN[C@@H]1[C@@H](C)O[C@@H](O[C@H]2[C@H](C)O[C@@H](O[C@@H]3/C(C)=C/C[C@@H]4C[C@@H](C[C@]5(C=C[C@H](C)[C@@H](C(C)C)O5)O4)OC(=O)[C@@H]4C=C(C)[C@@H](O)[C@H]5OC/C(=C\C=C\[C@@H]3C)[C@]54O)C[C@@H]2OC)C[C@H]1OC | inactive: 0.788
26 | COc1ccc2c3c(n(c2c1)C)[C@@H](CO)N(C[C@]13CCN(CC1)C(=O)c1ccncc1)C(=O)C1CCOCC1 | inactive: 0.989
27 | O=C(C[C@H]1C[C@@H]2c3cc(NC(=O)NC4CCCC4)ccc3O[C@@H]2[C@H](CO)O1)NCc1ccc2c(c1)OCO2 | inactive: 0.958
28 | C[C@@H]1CCCCO[C@@H](CN(C)C(=O)c2ccccc2)[C@H](C)CN([C@H](C)CO)C(=O)c2cc(NC(=O)Cc3ccccc3)ccc2O1 | inactive: 0.991
29 | C[C@@H]1CN([C@H](C)CO)C(=O)c2cccc(NC(=O)NC3CCCCC3)c2O[C@H]1CN(C)S(C)(=O)=O | inactive: 0.957
30 | O=C(OCC1OC(OC(=O)c2cc(O)c(O)c(OC(=O)c3cc(O)c(O)c(O)c3)c2)C(OC(=O)c2cc(O)c(O)c(OC(=O)c3cc(O)c(O)c(O)c3)c2)C(OC(=O)c2cc(O)c(O)c(OC(=O)c3cc(O)c(O)c(O)c3)c2)C1OC(=O)c1cc(O)c(O)c(OC(=O)c2cc(O)c(O)c(O)c2)c1)c1cc(O)c(O)c(OC(=O)c2cc(O)c(O)c(O)c2)c1 (centres undefined) | inactive: 0.647
31 | CN(C)CC(=O)N[C@@H]1CC[C@H](CCNS(=O)(=O)c2ccccc2)O[C@@H]1CO | inactive: 0.993
32 | C[C@@H]1CCCCO[C@@H](CN(C)C(=O)Nc2ccc3c(c2)OCO3)[C@@H](C)CN([C@H](C)CO)C(=O)c2cc(NS(=O)(=O)c3ccc(F)cc3)ccc2O1 | inactive: 0.994
33 | Cl.Cl.N=C(NCCCCCCNC(=N)NC(=N)Nc1ccc(Cl)cc1)NC(=N)Nc1ccc(Cl)cc1 | active: 0.0423
34 | COCC#Cc1ccc2c(c1)O[C@@H](CN(C)Cc1ccc3c(c1)OCO3)[C@@H](C)CN([C@H](C)CO)S2(=O)=O | inactive: 1.04
35 | CCCCCCCCCCCC=C=CCCCC(=O)O | inactive: 1.03
36 | COc1ccc(C(=O)Nc2ccc3c(c2)C(=O)N(C)[C@H]2CC[C@H](CC(=O)NCC4CC4)O[C@@H]2CO3)cc1 | inactive: 0.993
37 | Cc1ccc(S(=O)(=O)Nc2ccc3c(c2)C(=O)N([C@@H](C)CO)C[C@@H](C)[C@H](CN(C)Cc2ccc(Oc4ccccc4)cc2)O3)cc1 | inactive: 1.01
38 | C[C@H]1CN([C@@H](C)CO)C(=O)CCCn2cc(nn2)CO[C@@H]1CN(C)C(=O)Nc1ccc2c(c1)OCCO2 | inactive: 0.986
39 | CS(=O)(=O)c1ccc(C(O)C(CO)NC(=O)C(Cl)Cl)cc1 (centres undefined) | inactive: 0.375
40 | CCc1nnc(N)[nH]1 | inactive: 0.947

Row | Compound | relative growth
41 | NCCCCCCNC(=O)[C@H]1C[C@H]2C(=O)N[C@@H](Cc3ccccc3)C(=O)N2[C@H]1c1cccc(OCCO)c1 | inactive: 1
42 | Cn1c(=O)c2c(ncn2CC2OCCO2)n(C)c1=O | inactive: 1.04
43 | C[C@@H]1CCCCO[C@@H](CN(C)Cc2ccc(C(=O)Nc3ccccc3N)cc2)[C@@H](C)CN([C@H](C)CO)C(=O)c2cc(NC(=O)Nc3ccccc3)ccc2O1 | inactive: 1.05
44 | Clc1ccc(COC(Cn2ccnc2)c2ccc(Cl)cc2Cl)cc1.O=[N+]([O-])O (centres undefined) | inactive: 0.949
45 | C[C@@H]1CN([C@@H](C)CO)C(=O)c2cc(NS(=O)(=O)c3cn(C)cn3)ccc2O[C@@H](C)CCCCO[C@@H]1CN(C)S(=O)(=O)c1cn(C)cn1 | inactive: 1.01
46 | C[C@H](CO)N1C[C@H](C)[C@H](CN(C)Cc2ccc3c(c2)OCO3)Oc2ccc(NC(=O)Nc3cccc4ccccc34)cc2CC1=O | inactive: 0.994
47 | C[C@@H]1CN([C@H](C)CO)C(=O)c2cc(NC(=O)C3CCCCC3)ccc2O[C@@H]1CN(C)Cc1ccc(C(F)(F)F)cc1 | inactive: 1.01
48 | C[C@@H]1CCCCO[C@H](CN(C)Cc2ccc(C(F)(F)F)cc2)[C@H](C)CN([C@@H](C)CO)C(=O)c2cc(NC(=O)Nc3ccccc3)ccc2O1 | inactive: 0.992
49 | C[C@@H]1CN([C@@H](C)CO)C(=O)c2cc(NC(=O)Nc3cccc4ccccc34)ccc2O[C@@H]1CN(C)S(=O)(=O)c1cccs1 | inactive: 0.995
50 | CC(=O)N(C)c1nc(N)n(-c2ccccc2)n1 | inactive: 1.01
51 | Cc1noc(C)c1NC(=O)N[C@@H]1C=C[C@@H](CC(=O)N2CCN(C)CC2)O[C@@H]1CO | inactive: 1.02
52 | CN1CCCN=C1COC(=O)C(O)(c1ccccc1)C1CCCCC1.Cl (centres undefined) | inactive: 1
53 | Cc1noc(C)c1NC(=O)N(C)C[C@@H]1Oc2c(NC(=O)c3ccc(-c4nccs4)cc3)cccc2C(=O)N([C@H](C)CO)C[C@@H]1C | inactive: 1.06
54 | CCS(=O)(=O)N1C[C@]2(CCN(CC2)C(=O)Cc2ccccc2)c2c(n(c3cc(ccc23)OC)C)[C@H]1CO | inactive: 1
55 | CCCNC(=O)N(C)C[C@H]1Oc2cc(C#Cc3ccccn3)ccc2S(=O)(=O)N([C@H](C)CO)C[C@H]1C | inactive: 1.02
56 | C[C@@H]1CCCCO[C@H](CN(C)C(=O)CCC(F)(F)F)[C@@H](C)CN([C@H](C)CO)C(=O)c2cc(NC(=O)Nc3ccccc3)ccc2O1 | inactive: 0.965
57 | C[C@H](CO)N1C[C@H](C)[C@H](CN(C)C(=O)Nc2cccc3ccccc23)Oc2ccc(NC(=O)NC3CCCCC3)cc2C1=O | inactive: 1.04
58 | COCC#Cc1cnc2c(c1)C(=O)N([C@@H](C)CO)C[C@H](C)[C@@H](CN(C)S(=O)(=O)c1cn(C)cn1)O2 | inactive: 1
59 | C[C@H](CO)N1C[C@H](C)[C@H](CN(C)S(=O)(=O)c2ccc(F)cc2)OCCCC[C@H](C)Oc2ccc(NC(=O)Cc3ccccc3)cc2C1=O | inactive: 1.05
